Data: publication PMC4336329 (PLoS ONE, 2015)
Hit rate of the full screen: of about 310,000 compounds, about 14,000 (4.5%) showed an effect of 50% or more. Effects have a minus sign here. This is one part of the list.

These compounds were tested against human ether-à-go-go-related gene (hERG) potassium channel (human, UniProt Q12809) (assay: primary screen, population patch clamp on CHO cells stably expressing hERG).
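Further: peak tail current of the secondary pulse compared with the same well before compound.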

Sequence of human ether-à-go-go-related gene (hERG) potassium channel (Q12809 whole entry, looked up): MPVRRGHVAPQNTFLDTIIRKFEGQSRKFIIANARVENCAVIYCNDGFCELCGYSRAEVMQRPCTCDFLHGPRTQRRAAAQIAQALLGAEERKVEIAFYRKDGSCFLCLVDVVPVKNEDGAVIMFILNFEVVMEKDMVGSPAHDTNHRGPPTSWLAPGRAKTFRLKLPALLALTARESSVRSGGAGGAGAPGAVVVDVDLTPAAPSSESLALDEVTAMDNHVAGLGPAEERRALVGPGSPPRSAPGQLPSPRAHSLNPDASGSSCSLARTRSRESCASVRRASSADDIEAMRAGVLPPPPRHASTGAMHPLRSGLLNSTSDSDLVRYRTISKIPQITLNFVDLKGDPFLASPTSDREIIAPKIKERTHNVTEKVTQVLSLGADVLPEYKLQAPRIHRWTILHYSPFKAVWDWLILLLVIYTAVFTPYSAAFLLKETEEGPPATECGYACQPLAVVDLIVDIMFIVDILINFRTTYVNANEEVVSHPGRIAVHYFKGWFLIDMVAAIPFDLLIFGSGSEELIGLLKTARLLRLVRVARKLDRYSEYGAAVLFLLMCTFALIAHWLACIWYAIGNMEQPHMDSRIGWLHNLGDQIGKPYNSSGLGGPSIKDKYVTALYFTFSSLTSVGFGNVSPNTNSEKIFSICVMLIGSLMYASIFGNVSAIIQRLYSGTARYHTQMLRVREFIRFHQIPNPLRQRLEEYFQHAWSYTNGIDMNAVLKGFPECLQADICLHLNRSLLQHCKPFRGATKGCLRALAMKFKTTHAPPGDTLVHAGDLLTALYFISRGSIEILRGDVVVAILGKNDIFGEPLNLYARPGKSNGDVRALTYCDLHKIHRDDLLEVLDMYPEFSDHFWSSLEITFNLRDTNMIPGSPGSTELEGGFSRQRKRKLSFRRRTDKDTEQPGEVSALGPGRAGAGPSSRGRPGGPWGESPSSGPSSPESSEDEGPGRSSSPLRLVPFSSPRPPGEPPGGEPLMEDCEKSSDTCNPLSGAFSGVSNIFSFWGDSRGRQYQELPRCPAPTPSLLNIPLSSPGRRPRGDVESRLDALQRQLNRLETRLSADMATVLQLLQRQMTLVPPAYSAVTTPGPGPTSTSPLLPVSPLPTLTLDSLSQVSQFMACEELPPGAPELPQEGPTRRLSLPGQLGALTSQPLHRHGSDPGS

Structure (SMILES) | hERG current change (%, negative = inhibition) at 10uM [%]
CCOC(=O)Nc1cc(OCC)c(NC(=O)C2CC2)cc1OCC | 11
c1ccc2sc(N3CCNCC3)nc2c1 | 17
COc1cccc(CN2CCN(Cc3ccc4c(NC(C)=O)cccc4n3)CC2CCO)c1 (centres unmarked) | 5.13
COc1ccc(/C=C2/Sc3ccc(C(=O)N4CCOCC4)cc3NC2=O)cc1OC | 26.9
O=C(Cc1cccs1)NNC(=S)NCc1ccco1 | 14.2
CCc1ccc(NS(=O)(=O)c2ccc3c(c2)oc(=O)n3C)cc1 | 10.8
CCOc1ccccc1/C=N/n1c(C2CCCCC2)n[nH]c1=S | 16.8
CS(=O)(=O)c1ccc(Cl)c(NC(=O)c2cccc(Br)c2)c1 | -1.24
Cl.O=C(OC[C@@H]1CCCN2CCCC[C@H]12)c1cc2ccccc2oc1=O | -50.1
Cn1c(=O)c(=O)n(C)c2cc(S(=O)(=O)CCC(=O)Nc3cccc(C(F)(F)F)c3)ccc21 | 26.7
CCCC(=O)Nc1nnc(-c2ccccc2)o1 | 7.03
O=C(NS(=O)(=O)c1ccc2c(c1)OCCO2)c1ccccc1 | 28.1
O=S(=O)(Cc1ccc(Cl)cc1)NCc1cccnc1 | -5.17
Cc1cc(C)n2c(SCC(=O)NCc3ccco3)nnc2n1 | 21.7
O=C(c1sc2cc(F)ccc2c1Cl)N1CCN(c2cccc(Cl)c2)CC1 | 6.75
O=C(NNC(=O)C12CC3CC(CC(C3)C1)C2)c1csc(N2CCOCC2)n1 | 11.3
COC(=O)c1cc(Br)c(=O)n(-c2ccc(F)cc2)c1 | -63.9
O=C(CSc1nncn1-c1ccccc1)c1c[nH]c2ccccc12 | 18
COc1ccccc1C(=O)Nc1cc(C)ccc1NC(=O)c1ccco1 | -44.4

Structure (SMILES) | hERG current change (%, negative = inhibition) at 10uM [%]
CC(C)NC(=O)c1ccc(N2CC3CC(C2)c2cccc(=O)n2C3)c([N+](=O)[O-])c1 (centres unmarked) | -3.98
Cc1ccc(OCC(=O)n2nc(C)cc2C)c(Br)c1 | -0.529
CC(C)NC(=O)Nc1ccc(Br)cc1Cl | 22.9
CC1(C)CC(=O)C=C(NCCCN2CCCC2=O)C1 | -3.45
CN(C)S(=O)(=O)c1ccc(C(=O)OCCN=C2NS(=O)(=O)c3ccccc32)cc1 | 6.78
CCC/S(C)=N/S(=O)(=O)c1ccc(C)cc1 (centres unmarked) | 0.0593
Cc1ccccc1NC(=O)CN1CCN(C(=O)c2ccco2)CC1 | -29.4
CC(C)(C)c1ccc(C(=O)N2CCC(C(=O)NCCC3=CCCCC3)CC2)cc1 | -19.9
N#Cc1ccc(-c2cccnc2)nc1SCC(=O)c1ccccc1 | 0.311
Cc1cc(C)cc(NC(=O)COc2ccc3c(C)c(Cc4ccccc4)c(=O)oc3c2)c1 | 5.91
Cc1cc(C)c(-n2c(SCc3nc4ccccc4s3)n[nH]c2=O)c(C)c1 | -20.9
COc1ccccc1-c1nnc(SCC(=O)OC(C)C)o1 | -8.71
NP(=O)(Oc1ccccc1Cl)Oc1ccccc1Cl | 5.71
COc1ccc(C(=O)Nc2cccc(NC(=O)c3cccs3)c2)cc1OC | 8.5
O=C(COC(=O)CCc1ccc(S(=O)(=O)N2CCCCC2)cc1)Nc1ccc2c(c1)OCO2 | -1.78
Cc1cc(C(=O)Nc2ccc(S(=O)(=O)N3CCCC3)cc2)cs1 | -0.109
CN(C)C(=O)CNc1n[nH]c(=S)[nH]c1=O | 1.61
COc1ccc(NC(=O)CSc2nnc(NC(=O)C3CCC3)s2)cc1 | 18.3
Cc1cc(C)cc(NC(=O)c2ccccc2CC[N+](=O)[O-])c1 | 6.14

Structure (SMILES) | hERG current change (%, negative = inhibition) at 10uM [%]
CCCC(=O)N(CCN(Cc1ccccc1)C(=O)CCC)Cc1ccccc1 | -42.5
COc1ccc([C@H]2/C=C\CN(C(=O)[C@H](Cc3ccccc3)NC(=O)OCC3c4ccccc4-c4ccccc43)CC(=O)N2Cc2ccc(F)cc2)cc1 | -24.4
Cn1c(SC2C(=O)CC(C)(C)CC2=O)nnc1-c1ccco1 | 7.11
COc1ccc(-c2nnc(SCC(=O)Nc3cccc(Cl)c3)o2)cc1 | -15.1
O=P(O)(CCc1ccccn1)CN1CCCCC1 | -67.6
COc1ccc(S(=O)(=O)N2CCC(C(=O)NCCC(=O)NCc3cccc(OC)c3)CC2)cc1 | -4.05
COC(=O)c1cc2c(ccn2-c2ccc(F)cc2)n1CC(C)C | 9.33
CN(CC(=O)Nc1ccc(F)cc1)C(=O)c1cccc(S(=O)(=O)N2CCN(c3ccc(F)cc3)CC2)c1 | -3.95
CCOC(=O)[C@H]1[C@H]2COc3ccc(OC)cc3[C@@H]2N2C(=O)c3ccc(F)cc3NC(=O)[C@@]12C | -2.29
COc1ccc(C2Nc3ccccc3C(=O)N2c2ccccc2)cc1Cn1cc([N+](=O)[O-])cn1 (centres unmarked) | -37.3
Nc1nnnn1/N=C/c1ccc(Br)cc1 | 17.4
O=C(CSc1nnc(CNc2ccc(Cl)cc2)n1Cc1ccccc1)NCc1ccco1 | -15.6
CN1CCN(C(=O)c2ccc(COc3cc(Cl)ccc3Cl)o2)CC1 | -46.1
COc1ccc2nc3ccccc3nc2c1NC(=O)c1ccc(Br)cc1 | 12
COc1ccc(C(=O)NCCc2cc3ccc(C)c(C)c3[nH]c2=O)cc1OC | -23
O=C(Cn1c2c(sc1=O)C1c3ccccc3OCC1CS2)Nc1ccc(Cl)c(Cl)c1 (centres unmarked) | 5.07
COc1ccccc1/C=C(/C(=O)NCCCn1ccnc1)c1ccccc1 | -15.8
COc1ccc(CN(CC(=O)NC2CCCC2)C(=O)CN2C(=O)COc3ccccc32)cc1 | -37.9
